Assay results: PubChem BioAssay AID1963576 (National Center for Advancing Translational Sciences (NCATS), 2024)
Out of some 46,000 compounds screened, about 60 (0.1%) were called active. Another 3% or so got no clear call; they are omitted. The call rests on the fitted dose curve; in most records, active means well fitted inhibition curve with a large enough effect; inconclusive means small, poorly fitted or top-dose-only effect; inactive means no such curve, though single readings can be large or run the other way. The list shows a part of the results.

Assay: Primary qHTS assay for Inhibitors of ovarian cancer metastasis using an organotypic tumor microenvironment (TME) model. Further: nearly all actives have a fitted effect of over 65% in size.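 On activity change, negative = inhibition: plate controls were DMSO wells for no effect and tomatine positive control wells for full effect.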
Conditions: SKOV3ip1-GFP adhesion/invasion on 3D omental model, fluorescence; series mostly up to 45.8 µM; activity change, negative = inhibition: at the top concentration
How it was run: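 Primary human omental fibroblast/mesothelial 3D culture pre-formed 48 h. SKOV3ip1-GFP cells added with compounds (0.36-46 umol/L), incubated 2 h RT/16 h 37 C, fixed; GFP cells quantified at 488/509 nm.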

Activity change, negative = inhibition, inactive:
CCc1cccc(-n2c(=O)c3cccnc3n2CC(=O)NCc2ccc(C)cc2)c1 -2.1%, O=C(CCCCCn1c(=O)c2sccc2n(CC(=O)Nc2cc(C(F)(F)F)ccc2Cl)c1=O)NCc1ccccc1Cl -24.8%, COc1ccccc1-c1cc2nc(C)c(CCC(=O)NCCc3cccc(C)c3)c(C)n2n1 3.69%, CC1=C(C(=O)Nc2cc(Cl)ccc2C)C(c2sccc2C)n2ncnc2N1 (stereo unspecified) -24.3%, Cc1ccc(Cl)cc1N1CCN(C(=O)CSc2cc(=O)n(C)c3ccccc23)CC1 0.939%, CC(C)(C)c1ccc2c(c1)N(CC(=O)NCCCN1CCN(c3ccccc3F)CC1)C(=O)CO2 -5.58%, COc1ccc(C(=O)Nc2ccc3nc(SCC(=O)N(C)c4ccccc4)sc3c2)cc1 -5.53%, CSc1ncc(C(=O)NCc2ccc(C)cc2)c(C)n1 11.3%, Cc1cc(C)c(NC(=O)Cn2c(=O)n(CCC(=O)NCc3ccccc3Cl)c(=O)c3sccc32)c(C)c1 3.03%, Cc1ccc(CNC(=O)c2cc(-c3ccc(C)cc3)nc3n[nH]c(-c4cccc([N+](=O)[O-])c4)c23)cc1 6.98%, CC1CCN(S(=O)(=O)c2ccc3c(c2)N(CC(=O)NCCCN2CCCCC2)C(=O)CS3)CC1 -11.2%, CC(C)N(C(=O)Cn1cc(S(=O)(=O)Cc2ccc(Br)cc2)c2ccccc21)C(C)C 1.6%, Cc1c(C(=O)Nc2ccc(F)c(C(F)(F)F)c2)sc2nc(-c3ccccc3)cn12 -1.18%, Cc1oc(-c2ccc(Cl)cc2)nc1CN1CCCC(C(=O)NCc2ccccc2)C1 (stereo unspecified) -12.8%, CCN1CCN(C(c2ccccc2Cl)c2c(O)cc(C)n(CCOC)c2=O)CC1 (stereo unspecified) -2.62%, Cc1ccc(Cl)cc1N1CCN(C(=O)c2cc3c(=O)oc4ccccc4c3s2)CC1 38.2%, CC1CCCN(CCCNC(=O)Cn2ncc3c([nH]c4ccccc43)c2=O)C1 (stereo unspecified) 9.05%, Nc1nn(-c2ccccc2)nc1C(=O)OCc1ccccc1 -8.73%, CC1(C)CCC(C)(C)c2cc(NC(=O)c3ccc(C(=O)O)cc3)ccc21 9.14%, CCOC(=O)c1c(C)[nH]c(C)c1S(=O)(=O)N(C)CC(=O)Nc1ccc(C)cc1Br 33.6%, COCCCNC(=O)CSC1=Nc2ccccc2C2=NC(CCC(=O)NCc3ccc(OC)cc3)C(=O)N12 (stereo unspecified) 6.89%, CC(C)(C)C(=O)Nc1ccccc1C(=O)OCc1cc(=O)n2ccsc2n1 0.631%, CCc1ccc(C2=CC(c3c(F)cccc3Cl)n3c(nc4ccccc43)N2)cc1 (stereo unspecified) 2.08%, Cc1ccc(-n2c(SCC(=O)N3CCCc4ccccc43)nc3c([nH]c4ccccc43)c2=O)cc1 10.1%, Cc1ccc(S(=O)(=O)N2CCN(Cc3nc4ccc(C)cc4o3)CC2)c(C)c1 -0.987%, Cc1nc2ccc(S(=O)(=O)NCC(=O)Nc3ccc(F)cc3F)cc2s1 32.4%, N[C@@H](Cc1cc(I)c(Oc2cc(I)c(O)c(I)c2)c(I)c1)C(=O)O -18.5%, CCOC(=O)Cc1ccc(NC(=O)N(Cc2ccc(CC)cc2)Cc2cn[nH]c2-c2ccc(OC)cc2)cc1 -3.72%, CCOC(=O)Cn1c(=O)n(C2CCCCC2)c2nc(-c3c(F)cccc3Cl)nc(C(N)=O)c21 -3.06%, O=C(Nc1ccccc1Cl)N1CCSc2ccccc21 0.806%, CC(C)CCn1c(/C=C/c2ccccc2)nc2ccccc21 -1.57%, COc1ccccc1C(=O)Nc1sc(Nc2ccccc2)nc1C(N)=O 7.31%, O=C(c1ccc2c(c1)N(Cc1ccccc1)C(=O)c1ccccc1S2(=O)=O)N1CCN(Cc2ccccc2)CC1 9.18%, Cc1ccc(NC(=O)c2cnc3sc(N4CCOCC4)nn3c2=O)cc1N(C)C -1.82%, Cc1cccc(NC(=O)Cn2c(=O)n(CCCCCC(=O)NCc3ccc4c(c3)OCO4)c(=O)c3sccc32)c1 13.3%, COC(=O)c1scc(-c2ccc(C)cc2)c1S(=O)(=O)Nc1cc(C)ccc1OC -2.09%, COc1ccc(OC)c(NS(=O)(=O)c2ccc(N3CCCCS3(=O)=O)cc2)c1 2.65%, O=C(O)C(O)Cc1ccc(O)c(O)c1 (stereo unspecified) -23.9%, COc1cccc(N2CC(NC(=O)c3cc(Cl)ccc3OC)CC2=O)c1 (stereo unspecified) 11.9%, CCOc1ccc(N2CC(NC(=O)C3CCCC3)CC2=O)cc1 (stereo unspecified) 5.84%, Cc1cc(-n2ccnc(NCCc3ccc(S(N)(=O)=O)cc3)c2=O)ccc1Br -0.75%, COc1ccc(-c2onc(C)c2C)cc1S(=O)(=O)N(C)Cc1ccccc1 -8.59%, N#Cc1c(C(F)(F)F)cc(-c2cccs2)nc1SCC(=O)Nc1cccc(Cl)c1 -13.6%, COc1ccc(C(=O)c2sc(Nc3ccccc3)nc2N)cc1 0.193%

outcome, inactive:
Cc1cccc(CC(=O)Nc2ccc3nc(N4CCC(C)CC4)cc(C)c3c2)c1, O=C(CSc1cn(CCNC(=O)c2cccc(C(F)(F)F)c2)c2ccccc12)Nc1ccc2c(c1)OCCO2, O=C(c1ccc(F)cc1)N1CCC(c2nc3ccccc3s2)CC1, COc1ccc(NC2=C(c3ccccc3)C(=O)c3ccccc32)cc1Cl, CCOc1ccc(S(=O)(=O)NCCc2c(C)[nH]c3c(Cl)cccc23)cc1C, Cc1ccc(-n2c(COCC(=O)O)nc3cccnc32)cc1, Cc1ccc(/C=C(\C#N)C(=O)Nc2cccc(Br)c2)o1, CCCCn1c(=O)nc2n(-c3ccc(Br)cc3)c3ccccc3cc-2c1=O, CCc1ccccc1-n1nnc(-c2nsc(NC(=O)c3ccc(C)c(C)c3)n2)c1C, COc1cccc(C(=O)Nc2nc(-c3ccc(Br)cc3)ns2)c1, Cc1cc(C)cc(NC(=O)CSc2nc3nccnc3c(=O)n2CCc2c[nH]c3ccccc23)c1, Cc1ccc(-c2cn3ccc(C)cc3n2)cc1, COc1ccc(Nc2nc(C)nc(N)c2S(=O)(=O)c2ccccc2)cc1, Cc1cc(C)c2c(NC(=O)c3ccccc3)c(C(=O)Nc3ccc(F)cc3)sc2n1, Cc1ccc(C)c(N2CCN(CCCNC(=O)c3ccc4nc(CCc5ccccc5)oc4c3)CC2)c1, CCCNC(=O)C1CCC(Cn2c(=O)c3sccc3n(CC(=O)NCc3cccc(OC)c3OC)c2=O)CC1 (stereo unspecified), COc1ccc(NC(=O)c2ccco2)cc1NC(=O)c1cc(OC)c(OC)c(OC)c1
